We go through 36 compounds from US20250122202A1, “EGFR INHIBITOR, PREPARATION METHOD THEREFOR AND USE THEREOF” (SHANDONG NEW TIME PHARMACEUTICAL CO., LTD., priority 2021, published 2025).

Read-outs that look alike come from different tables or passages of the source.

Test [1] concerns KC-0116:BaF3 EGFR-Del19/T790M/C797S. Nature of the test: cells. To be noted: KC-0116, 72 h.
Test [2] has as its system KC-0122:BaF3 EGFR-L858R/T790M/C797S. Nature of the test: cells. The conditions noted are these: KC-0122, 72 h.
In test [3] the test system is KC-0116:BaF3 EGFR-Del19/T790M/C797S. To be noted: read-out: cell proliferation inhibition IC50 (μM) KC-0116.
Test [4] relates to KC-0122:BaF3 EGFR-L858R/T790M/C797S. The conditions noted are these: read-out: cell proliferation inhibition IC50 (μM) KC-0122; 72 h, CCK-8.
The mark [5] stands for this setting: read-out: cell proliferation inhibition IC50 (μM) KC-0116, 72 h, CCK-8.
[6] abbreviates: read-out: cell proliferation inhibition IC50 (μM) KC-0122, 72 h, CCK-8.
[7] abbreviates: read-out: cell proliferation inhibition IC50 (μM) KC-0116, 72 h, CCK-8, Table 5 numeric.
[8] abbreviates: read-out: cell proliferation inhibition IC50 (μM) KC-0122, 72 h, CCK-8, Table 5 numeric.
The mark [9] stands for this setting: read-out: cell proliferation inhibition IC50 (μM) KC-0116.

Turning to `O=C(c1ccccc1)c1c[nH]c2nc(Nc3ccc(N4CCOCC4)cc3)nc(N[C@H]3CC[C@H](CO)CC3)c12` [Example 98], the IC50 in test [1] (setting [5]) and in test [2] (setting [6]) was under 0.1 µM throughout.
`CN1CCN(c2ccc(Nc3nc(NCCN4CCCC4)c4c(C(=O)c5ccc(F)cc5)c[nH]c4n3)cc2)CC1` [Example 76]: the IC50 in test [1] (setting [5]) and in test [2] (setting [6]) was 0.1 to 1 µM each time.
As to `CN1CCN(c2ccc(Nc3nc(N[C@H]4CCN(C(=O)C(C)(C)C)C4)c4c(C(=O)c5ccc(F)cc5)c[nH]c4n3)cc2)CC1` [Example 53], the IC50 in test [1] (setting [5]) and in test [2] (setting [6]) was 0.1 to 1 µM throughout.
Regarding `CN1CCN(c2ccc(Nc3nc(N[C@H]4CC[C@H](O)CC4)c4c(C(=O)c5ccc(F)cc5)c[nH]c4n3)cc2)CC1` [Example 56], the IC50 in test [1] (setting [5]) and in test [2] (setting [6]) was under 0.1 µM each time.
As to `CN1CCN(c2ccc(Nc3nc(N[C@H]4CCN(C(=O)CC(C)(C)C)C4)c4c(C(=O)c5ccc(F)cc5)c[nH]c4n3)cc2)CC1` [Example 51], the IC50 in test [1] (setting [5]) and in test [2] (setting [6]) was 0.1 to 1 µM in each case.
Regarding `CN1CCN(c2ccc(Nc3nc(NC4CCN(S(C)(=O)=O)CC4)c4c(C(=O)c5ccc(F)cc5)c[nH]c4n3)cc2)CC1` [Example 64], the IC50 in test [1] (setting [5]) and in test [2] (setting [6]) was under 0.1 µM each time.
Regarding `CN1CCN(c2ccc(Nc3nc(N[C@H]4CC[C@@H](CO)CC4)c4c(C(=O)c5ccc(F)cc5)c[nH]c4n3)cc2)CC1` [Example 60], the IC50 was under 0.1 µM in test [1] (setting [5]), 0.038 µM in test [1] (setting [7]), under 0.1 µM in test [2] (setting [6]) and 0.088 µM in test [2] (setting [8]).
As to `CN1CCN(c2ccc(Nc3nc(NCC4CCOCC4)c4c(C(=O)c5ccc(F)cc5)c[nH]c4n3)cc2)CC1` [Example 59], the IC50 in test [1] (setting [5]) and in test [2] (setting [6]) was under 0.1 µM each time.
In the case of `COc1cc(N2CCC(N3CCN(C)CC3)CC2)ccc1Nc1ncc(Cl)c(Nc2ccccc2P(C)(C)=O)n1` [Brigatinib, reference compound], the IC50 in test [1] (setting [5]) was 0.1 to 1 µM; in test [1] (setting [7]) it was 0.43 µM; in test [2] (setting [6]) it was 0.1 to 1 µM; in test [2] (setting [8]), 0.49 µM.
As to `CN1CCN(c2ccc(Nc3nc(N[C@@H]4C=C[C@H](CO)C4)c4c(C(=O)c5ccc(F)cc5)c[nH]c4n3)cc2)CC1` [Example 19], the IC50 in test [1] (setting [5]) and in test [2] (setting [6]) was 0.1 to 1 µM throughout.
`CN1CCN(c2ccc(Nc3nc(N[C@H]4CCN(C(=O)c5ccc(F)cc5)C4)c4c(C(=O)c5ccc(F)cc5)c[nH]c4n3)cc2)CC1` [Example 52]: the IC50 in test [1] (setting [5]) and in test [2] (setting [6]) was 0.1 to 1 µM in each case.
For the compound `CN1CCN(c2ccc(Nc3nc(N[C@@H](CO)C(C)(C)C)c4c(C(=O)c5ccc(F)cc5)c[nH]c4n3)cc2)CC1` [Example 8], the IC50 in test [1] (setting [5]) and in test [2] (setting [6]) was 0.1 to 1 µM throughout.
In the case of `CN1CCN(c2ccc(Nc3nc(NC45CC6CC(CC(O)(C6)C4)C5)c4c(C(=O)c5ccc(F)cc5)c[nH]c4n3)cc2)CC1` [Example 70], the IC50 in test [1] (setting [5]) and in test [2] (setting [6]) was under 0.1 µM in each case.
Turning to `C=CC(=O)N1CC[C@H](Nc2nc(Nc3ccc(N4CCN(C)CC4)cc3)nc3[nH]cc(C(=O)c4ccc(F)cc4)c23)C1` [Example 27], the IC50 in test [1] (setting [5]) and in test [2] (setting [6]) was 0.1 to 1 µM throughout.
Turning to `C=CC(=O)Nc1cc(Nc2nccc(-c3cn(C)c4ccccc34)n2)c(OC)cc1N(C)CCN(C)C` [Osimertinib, reference compound], the IC50 is 1 to 2 µM in test [1] (setting [9]) and 1.74 µM in test [3].
Take `COc1nn(C)cc1Nc1nc(N[C@H]2CC[C@@H](CO)CC2)c2c(C(=O)c3ccc(F)cc3)c[nH]c2n1` [Example 116]: the IC50 in test [1] (setting [5]) and in test [2] (setting [6]) was 0.1 to 1 µM each time.
For the compound `CN1CCN(c2ccc(Nc3nc(N[C@@H]4CCCN(S(=O)(=O)C5CC5)C4)c4c(C(=O)c5ccc(F)cc5)c[nH]c4n3)cc2)CC1` [Example 3], the IC50 in test [1] (setting [9]) was 0.15 µM; in test [2] (read-out: cell proliferation inhibition IC50 (μM) KC-0122), 0.14 µM.
On to `C=CC(=O)N1CC[C@H](Nc2nc(Nc3ccc(N4CCN(C)CC4)cc3)nc3[nH]cc(C(=O)c4ccc(F)cc4F)c23)C1` [Example 44], for which the IC50 in test [1] (setting [5]) and in test [2] (setting [6]) was 0.1 to 1 µM each time.
Turning to `CN1CCN(c2ccc(Nc3nc(NCCN4CCCCC4)c4c(C(=O)c5ccc(F)cc5)c[nH]c4n3)cc2)CC1` [Example 77], the IC50 in test [1] (setting [5]) and in test [2] (setting [6]) was 0.1 to 1 µM each time.
Regarding `CN1CCN(c2ccc(Nc3nc(N[C@H]4CCCN(S(=O)(=O)C5CC5)C4)c4c(C(=O)c5ccc(F)cc5)c[nH]c4n3)cc2)CC1` [Example 21], the IC50 in test [1] (setting [9]) was determined as 0.15 µM; in test [2] (setting [8]), 0.27 µM.
Regarding `CN1CCN(c2ccc(Nc3nc(N[C@H]4CC[C@@H](CO)CC4)c4c(C(=O)c5ccc(F)cc5)c[nH]c4n3)cc2F)CC1` [Example 103], the IC50 in test [1] (setting [5]) and in test [2] (setting [6]) was 0.1 to 1 µM in each case.
As for `O=C(c1cccc(F)c1)c1c[nH]c2nc(Nc3ccc(N4CCOCC4)cc3)nc(N[C@H]3CC[C@H](CO)CC3)c12` [Example 92], the IC50 in test [1] (setting [5]) was under 0.1 µM; in test [1] (setting [7]) it was 0.0075 µM; in test [2] (setting [6]), under 0.1 µM; in test [2] (setting [8]), 0.0063 µM.
As for `CN1CCN(c2ccc(Nc3nc(NC4CCCCC4O)c4c(C(=O)c5ccc(F)cc5)c[nH]c4n3)cc2)CC1` (stereo not shown) [Example 43], the IC50 in test [1] (setting [5]) and in test [2] (setting [6]) was 0.1 to 1 µM each time.
As for `CN1CCN(c2ccc(Nc3nc(N[C@H]4C=C[C@@H](CO)C4)c4c(C(=O)c5ccc(F)cc5)c[nH]c4n3)cc2)CC1` [Example 20], the IC50 in test [1] (setting [5]) and in test [2] (setting [6]) was 0.1 to 1 µM each time.
For `CN1CCN(c2ccc(Nc3nc(N[C@H]4CC[C@@H](N)CC4)c4c(C(=O)c5ccc(F)cc5)c[nH]c4n3)cc2)CC1` [Example 86], the IC50 in test [1] (setting [5]) is under 0.1 µM; in test [2] (setting [6]), 0.1 to 1 µM.
Taken in the same sequence, the figures for `CN1CCC(n2cc(Nc3nc(N[C@H]4CC[C@@H](CO)CC4)c4c(C(=O)c5ccc(F)cc5)c[nH]c4n3)cn2)CC1` [Example 115] were 0.1 to 1 µM and 0.1 to 1 µM.
For `Cn1cc(Nc2nc(N[C@H]3CC[C@H](CO)CC3)c3c(C(=O)c4ccc(F)cc4)c[nH]c3n2)cn1` [Example 110] the same measures were under 0.1 µM and 0.1 to 1 µM.
For `CN1CCN(c2ccc(Nc3nc(NCC4(O)CCOCC4)c4c(C(=O)c5ccc(F)cc5)c[nH]c4n3)cc2)CC1` [Example 14], the results for the IC50 in test [1] (setting [5]), in test [4] and in test [2] (setting [6]) were 0.1 to 1 µM, under 0.1 µM and 0.1 to 1 µM, respectively.
As for `CN1CCN(c2ccc(Nc3nc(N[C@H]4CC[C@@H](O)CC4)c4c(C(=O)c5ccc(F)cc5)c[nH]c4n3)cc2)CC1` [Example 55], the IC50 in test [1] (setting [5]) and in test [2] (setting [6]) was under 0.1 µM in each case.
As for `C=CC(=O)N1CC[C@H](Nc2nc(Nc3ccc(N4CCN(C)CC4)cc3)nc3[nH]cc(C(=O)c4ccccc4F)c23)C1` [Example 46], the IC50 in test [1] (setting [5]) and in test [2] (setting [6]) was 0.1 to 1 µM throughout.
Regarding `CN(C)CCNc1nc(Nc2ccc(N3CCN(C)CC3)cc2)nc2[nH]cc(C(=O)c3ccc(F)cc3)c12` [Example 13], the IC50 in test [1] (setting [5]) and in test [2] (setting [6]) was under 0.1 µM throughout.
As to `Cn1cc(Nc2nc(N[C@@H]3CCCN(S(=O)(=O)C4CC4)C3)c3c(C(=O)c4ccc(F)cc4)c[nH]c3n2)cn1` [Example 4], the IC50 turned out to be 0.31 µM in test [1] (setting [7]) and 0.45 µM in test [2] (setting [8]).
For the compound `O=C(c1ccc(F)cc1)c1c[nH]c2nc(Nc3ccc(N4CCOCC4)cc3)nc(N[C@H]3CCCN(S(=O)(=O)C4CC4)C3)c12` [Example 30], the IC50 in test [1] (setting [5]) was under 0.1 µM; in test [2] (setting [6]) it was 0.1 to 1 µM.
`CN1CCN(c2ccc(Nc3nc(N[C@@H]4CC[C@@H](CO)OC4)c4c(C(=O)c5ccc(F)cc5)c[nH]c4n3)cc2)CC1` [Example 95]: the IC50 in test [1] (setting [5]) and in test [2] (setting [6]) was 0.1 to 1 µM each time.
Take `CN1CCN(c2ccc(Nc3nc(N[C@H](CO)C(C)(C)C)c4c(C(=O)c5ccc(F)cc5)c[nH]c4n3)cc2)CC1` [Example 9]: the IC50 in test [1] (setting [5]) and in test [2] (setting [6]) was 0.1 to 1 µM in each case.
Regarding `CN1CCN(c2ccc(Nc3nc(NCCN4CCOCC4)c4c(C(=O)c5ccc(F)cc5)c[nH]c4n3)cc2)CC1` [Example 75], the IC50 in test [1] (setting [5]) and in test [2] (setting [6]) was 0.1 to 1 µM in each case.
